{
  "source": "PubChem BioAssay AID485294",
  "about": "(National Center for Advancing Translational Sciences (NCATS), 2010)",
  "note": "About 150 (0.041%) of roughly 370,000 compounds were called active. The shares of active, inactive and inconclusive entries below differ from those in the screen. The call rests on the fitted dose curve; in most records, active means well fitted inhibition curve with a large enough effect; inconclusive means small, poorly fitted or top-dose-only effect; inactive means flat fitted curve, though single readings scatter. Potencies of inconclusive entries are left out as doubtful fits. Square brackets hold non-standard residues; d marks the D form. Peptide text beside a SMILES is read from it. * marks the point of attachment. ξ: configuration not given here. ξF = NC(Cc1ccccc1)C(=O)O; Cbz = O=C(OCc1ccccc1)*",
  "data": [
    {"molecular_target": "Beta-lactamase (Escherichia coli (strain K12)) (UniProt P00811)", "sequence (P00811 whole entry, looked up)": "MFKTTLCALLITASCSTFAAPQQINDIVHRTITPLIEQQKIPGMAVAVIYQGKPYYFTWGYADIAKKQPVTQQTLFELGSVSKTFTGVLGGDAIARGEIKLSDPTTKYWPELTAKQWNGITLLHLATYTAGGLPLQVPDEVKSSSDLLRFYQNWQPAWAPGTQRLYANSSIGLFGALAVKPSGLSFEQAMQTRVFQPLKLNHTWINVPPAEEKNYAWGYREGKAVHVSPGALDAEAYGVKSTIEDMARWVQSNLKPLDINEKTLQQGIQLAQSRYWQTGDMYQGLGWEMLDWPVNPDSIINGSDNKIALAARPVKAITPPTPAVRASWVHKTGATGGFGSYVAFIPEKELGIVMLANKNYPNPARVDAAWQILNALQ", "assay": "qHTS Inhibitors of AmpC Beta-Lactamase (assay with detergent); further: nearly all actives have a fitted effect of over 25% in size; further: potency means the concentration at half of the fitted maximal effect; tags describe the fitted curve by direction and shape;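 on activity change, negative = inhibition: 0% = no-compound wells and -100% = no-enzyme wells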", "conditions": "AmpC hydrolysis of nitrocefin, absorbance 480 nm, 0.01% Triton; activity change, negative = inhibition: at 114 µM (top of the series)", "procedure,_shortened": "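20 mM phosphate pH 7.0 + 0.01% (detergent screen) or 0.0001% Triton X-100; 5.3 nM AmpC reagent; cpd preinc 15 min RT; nitrocefin (800 uM stock) to start; A480 q20 s × 4 min; Activity was normalised to no-enzyme and no-compound control wells.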", "values": [
      {"smiles": "CS(=O)(=O)N(CC(=O)Nc1ccc(F)c(F)c1)c1cccc([N+](=O)[O-])c1", "Potency": "inconclusive [inhibitor, partial curve]"},
      {"smiles": "Cc1onc(-c2ccccc2)c1C(=O)N[C@@H]1C(=O)N2[C@@H]1SC(C)(C)[C@@H]2C(=O)O", "Potency": "inconclusive [inhibitor, full curve, poor fit]"},
      {"smiles": "COc1ccccc1NC(=O)NNC(=O)c1ccc2ccccc2c1O", "Potency": "inconclusive [inhibitor, full curve]"},
      {"smiles": "COc1cccc2c(=O)n(CC(=O)Nc3ccc(F)cc3F)ccc12", "Potency": "inconclusive [inhibitor, full curve, poor fit]"},
      {"smiles": "CCC(=O)NCC(c1cccs1)N1CCOCC1", "note": "(stereo unspecified)", "Potency": "inconclusive [inhibitor, full curve, poor fit]"},
      {"smiles": "Cc1ccc(Cn2nnc3c(=O)[nH]c(C4CCN(S(=O)(=O)c5ccc(F)cc5)CC4)nc32)cc1", "Potency": "inconclusive [inhibitor, full curve, poor fit]"},
      {"smiles": "COc1ccc(OCc2cc(C(=O)N(C)Cc3nnc(C)o3)no2)c(Cl)c1", "Potency": "inconclusive [inhibitor, partial curve]"},
      {"smiles": "COc1ccc(NS(=O)(=O)c2cc(NC(=O)CNC(=O)c3cccc(OC)c3)ccc2C)cc1", "Potency": "inconclusive [inhibitor, full curve, poor fit]"},
      {"smiles": "O=C(Nc1cc(Cl)ccc1Cl)Nn1cnnc1", "Potency": "inconclusive [inhibitor, full curve, poor fit]"},
      {"smiles": "Cc1ccnc(NC(=O)CCC(=O)N(CC(=O)NC(C)(C)C)c2ccc3c(c2)OCO3)c1", "activity change, negative = inhibition": "inactive: -10.9%"},
      {"smiles": "COc1ccc(NC(=O)Nc2cc(C)ccc2F)cc1", "Potency": "inconclusive [inhibitor, full curve, poor fit]"},
      {"smiles": "Cn1cc(S(=O)(=O)N2CCCC2)cc1C(=O)NCc1ccccc1Cl", "Potency": "inconclusive [inhibitor, partial curve, poor fit]"},
      {"smiles": "NC(=O)CCC(=O)N1CCCC(C(=O)c2ccc(C(F)(F)F)cc2)C1", "note": "(stereo unspecified)", "Potency": "inconclusive [inhibitor, full curve, poor fit]"},
      {"smiles": "CSc1ncccc1C(=O)OCC(=O)NC1CC1", "Potency": "inconclusive [inhibitor, full curve, poor fit]"},
      {"smiles": "Cc1ccc(S(=O)(=O)N2[C@@H](c3ccccc3F)C(C(=O)O)=CC[C@H]2c2ccc3c(c2)OCO3)cc1", "activity change, negative = inhibition": "inactive: -0.0541%"},
      {"smiles": "CC(C)(C)C1CCC(=O)N(CCC#N)CC1", "note": "(stereo unspecified)", "Potency": "inconclusive [inhibitor, partial curve, poor fit]"},
      {"smiles": "CC(C)NC(=O)c1cnn2c1NC(c1cccs1)CC2C(F)(F)F", "note": "(stereo unspecified)", "Potency": "inconclusive [inhibitor, full curve, poor fit]"},
      {"smiles": "CC(=Nc1ccccc1)c1sc2ccccc2c1O", "Potency": "inconclusive [inhibitor, full curve]"},
      {"smiles": "COc1ccc(Br)cc1S(=O)(=O)NCCN1CCOCC1", "Potency": "inconclusive [inhibitor, single point]"},
      {"smiles": "CCCc1cc(C(=O)OC)c2ccccc2n1", "Potency": "inconclusive [inhibitor, partial curve]"},
      {"smiles": "CN(C)c1ccc(C(=O)C(O)c2ccc(C(C)(C)C)cc2)cc1", "note": "(stereo unspecified)", "Potency": "inconclusive [inhibitor, full curve, poor fit]"},
      {"smiles": "CC(C)NC(=O)CSc1ccccc1C(=O)N1CCN(S(=O)(=O)Cc2ccccc2)CC1", "Potency": "inconclusive [inhibitor, full curve, poor fit]"},
      {"smiles": "O=C(COC(=O)c1ccccc1C(=O)OCC(=O)NCCc1c[nH]c2ccccc12)NCCc1c[nH]c2ccccc12", "Potency": "inconclusive [inhibitor, single point]"},
      {"smiles": "O=C(CSc1nc(SCC(=O)NCc2ccccc2)n(-c2ccccc2)n1)NCc1ccccc1", "activity change, negative = inhibition": "inactive: -10.3%"},
      {"smiles": "Cc1ccn2c(=O)c(C(=O)NCCCN3CCCC3=O)c(O)nc2c1", "Potency": "inconclusive [inhibitor, full curve]"},
      {"smiles": "C=CCc1ccccc1OCC(O)CN(C(C)C)C(C)C", "note": "(stereo unspecified)", "Potency": "inconclusive [inhibitor, full curve, poor fit]"},
      {"smiles": "CCOC(=O)c1nn(-c2ccc(Cl)cc2)c2nc(-c3ccc(C)cc3)c(C#N)c(=O)n12", "Potency": "inconclusive [inhibitor, full curve]"},
      {"smiles": "CCOC(=O)C1=C(C)N(C)C(C)=C(C(=O)OCC)C1c1ccncc1", "Potency": "inconclusive [inhibitor, full curve]"},
      {"smiles": "COc1ccc(C2=NN(C(=O)CCC(=O)O)C(c3ccccc3OC)C2)cc1", "note": "(stereo unspecified)", "activity change, negative = inhibition": "inactive: -2.79%"},
      {"smiles": "O=C(NCc1ccc(F)cc1)C1CCCCN1S(=O)(=O)c1ccc(F)cc1", "note": "(stereo unspecified)", "activity change, negative = inhibition": "inactive: 5.82%"},
      {"smiles": "CCOC(=O)c1oc2ccc3c(c2c1C)C(=O)CC1(CCN(C(=O)OCC)CC1)O3", "Potency": "inconclusive [inhibitor, partial curve]"},
      {"smiles": "C#CCOCCOCCOCCNc1nc(N2CCN(C(=O)CCCCCCCCCCNC(=O)Cn3cc(C[C@@H](C)O)nn3)CC2)nc(N2CCN(C(=O)CCCCCCCCCCNC(=O)[C@@H]([C@H](C)O)n3cc(C)nn3)CC2)n1", "Potency": "inconclusive [inhibitor, single point]"},
      {"smiles": "COc1ccc(C(=O)C2CCCN(Cc3cccn3-c3nccs3)C2)cc1OC", "note": "(stereo unspecified)", "activity change, negative = inhibition": "inactive: -1.31%"},
      {"smiles": "CSc1nc(N)nc(SCC(=O)Nc2cccc(F)c2)c1C#N", "Potency": "inconclusive [inhibitor, partial curve]"},
      {"smiles": "Cc1cccc(NC(=O)c2nc[nH]c2C(=O)N[C@H](C)c2ccccc2)c1", "activity change, negative = inhibition": "inactive: 1.09%"},
      {"smiles": "Cc1ccccc1NC(=O)Cn1c(=O)n(Cc2ccc3c(c2)OCO3)c(=O)c2ccc(C(=O)NC3CCCCC3)cc21", "activity change, negative = inhibition": "inactive: -0.411%"},
      {"smiles": "CCN1C(=NCc2ccc(OC)cc2)N[C@@H](c2ccccc2)[C@H](C(=O)OC)[C@H]1C", "Potency": "inconclusive [inhibitor, partial curve, poor fit]"},
      {"smiles": "Cc1cc(C)c(NC(=O)CSc2nnc(-c3ccncc3)n2Cc2ccco2)c(Cl)c1", "Potency": "inconclusive [inhibitor, full curve, poor fit]"},
      {"smiles": "Cc1cc(NC(=O)CCC(=O)N(CC(=O)NC2CCCC2)Cc2ccccc2Cl)no1", "Potency": "inconclusive [inhibitor, single point]"},
      {"smiles": "CCOC(=O)c1ccc(CNC(=O)Cn2nnc(-c3ccc(C)cc3)n2)o1", "Potency": "inconclusive [inhibitor, full curve, poor fit]"},
      {"smiles": "O=C(NCC(c1cccs1)N1CCOCC1)c1cc2ccccc2o1", "note": "(stereo unspecified)", "Potency": "inconclusive [inhibitor, partial curve, poor fit]"},
      {"smiles": "CC(C)c1ccc(Nc2cnn(C34CC5CC(CC(CC(=O)O)(C5)C3)C4)c(=O)c2Cl)cc1", "Potency": "inconclusive [inhibitor, full curve, poor fit]"},
      {"smiles": "Cc1ccc(Cn2c(/C=C/c3ccco3)nc3ccccc32)cc1", "activity change, negative = inhibition": "inactive: -13.6%"},
      {"smiles": "C/C(=N/NC(=O)CCCOc1ccc(Cl)cc1Cl)c1ccc(C)o1", "Potency": "inconclusive [inhibitor, partial curve, poor fit]"},
      {"smiles": "COc1ccc(-c2cc(C(=O)Nc3nc4c(C)cccc4s3)c3ccccc3n2)cc1OC", "Potency": "inconclusive [inhibitor, full curve, poor fit]"},
      {"smiles": "Cc1cc(-c2ccccc2)n2nc(-c3cccc(Br)c3)cc2n1", "activity change, negative = inhibition": "inactive: 8.89%"},
      {"smiles": "COc1ccc(CC2SC(N)=NC2=O)cc1", "note": "(stereo unspecified)", "Potency": "inconclusive [inhibitor, partial curve, poor fit]"},
      {"smiles": "CC1CN(C(=S)Nc2ccc(F)cc2F)CC(C)O1", "note": "(stereo unspecified)", "Potency": "inconclusive [inhibitor, partial curve, poor fit]"},
      {"smiles": "CCC(c1nnnn1Cc1ccc2c(c1)OCO2)N1CCN(c2ccc(F)cc2)CC1", "note": "(stereo unspecified)", "Potency": "inconclusive [inhibitor, full curve, poor fit]"},
      {"smiles": "Cc1ccc([C@@H]2[C@@H]3C(=O)N(C)C(=O)[C@@H]3[C@@H]3C(=O)Nc4ccccc4C(=O)N23)cc1", "Potency": "inconclusive [inhibitor, full curve, poor fit]"},
      {"smiles": "Cc1cc(C)n(CCC(=O)Nc2ccc3c(c2)OCCO3)n1", "Potency": "inconclusive [inhibitor, partial curve, poor fit]"},
      {"smiles": "COc1ccc(CC(=O)OCN2C(=O)c3ccccc3C2=O)cc1", "Potency": "inconclusive [inhibitor, full curve, poor fit]"},
      {"smiles": "O=C(NC(=S)Nc1ccccc1N1CCN(C(=O)c2ccccc2)CC1)c1ccccc1F", "activity change, negative = inhibition": "inactive: 1.72%"},
      {"smiles": "O=C1NN(c2ccc(Cl)c(Cl)c2)C(=O)/C1=C/c1cccc(OC(=O)c2cccs2)c1", "Potency": "inconclusive [inhibitor, partial curve, poor fit]"},
      {"smiles": "Cc1cc(C)cc(OCC(=O)O/N=C(\\N)c2ccccn2)c1", "activity change, negative = inhibition": "inactive: 0.729%"},
      {"smiles": "CCOC(=O)C(Cc1ccccc1)NC(=O)CNC(=O)CNC(=O)OCc1ccccc1", "note": "(stereo not drawn) (Cbz-Gly-Gly-[ξF]-OEt)", "Potency": "inconclusive [inhibitor, partial curve, poor fit]"},
      {"smiles": "O=C(NCSc1ccncn1)c1ccccc1", "activity change, negative = inhibition": "inactive: -9.37%"},
      {"smiles": "COc1ccc(N2CCN(C(=O)C3(S(=O)(=O)c4ccc(C)cc4)CC3)CC2)cc1", "Potency": "inconclusive [inhibitor, full curve, poor fit]"},
      {"smiles": "CCOC(=O)c1ccc(NC(=O)c2nc(SC(C)C)ncc2Cl)cc1", "activity change, negative = inhibition": "inactive: 19.4%"},
      {"smiles": "CS(=O)(=O)N(CC(=O)NCCSCc1ccccc1)c1cc(C(F)(F)F)ccc1Cl", "activity change, negative = inhibition": "inactive: 3.69%"},
      {"smiles": "COCCn1c(SCc2ccccc2Cl)nc2c1c(=O)[nH]c(=O)n2C", "Potency": "inconclusive [inhibitor, partial curve]"}
    ]}
  ]
}
